From article PMC3541368 come the findings set out here.

Chains of the proteins cited; added tags and fusions are not shown. Lines headed by an entry give the natural chain unless they say otherwise; changes in a name come on top.
UniProt P42224: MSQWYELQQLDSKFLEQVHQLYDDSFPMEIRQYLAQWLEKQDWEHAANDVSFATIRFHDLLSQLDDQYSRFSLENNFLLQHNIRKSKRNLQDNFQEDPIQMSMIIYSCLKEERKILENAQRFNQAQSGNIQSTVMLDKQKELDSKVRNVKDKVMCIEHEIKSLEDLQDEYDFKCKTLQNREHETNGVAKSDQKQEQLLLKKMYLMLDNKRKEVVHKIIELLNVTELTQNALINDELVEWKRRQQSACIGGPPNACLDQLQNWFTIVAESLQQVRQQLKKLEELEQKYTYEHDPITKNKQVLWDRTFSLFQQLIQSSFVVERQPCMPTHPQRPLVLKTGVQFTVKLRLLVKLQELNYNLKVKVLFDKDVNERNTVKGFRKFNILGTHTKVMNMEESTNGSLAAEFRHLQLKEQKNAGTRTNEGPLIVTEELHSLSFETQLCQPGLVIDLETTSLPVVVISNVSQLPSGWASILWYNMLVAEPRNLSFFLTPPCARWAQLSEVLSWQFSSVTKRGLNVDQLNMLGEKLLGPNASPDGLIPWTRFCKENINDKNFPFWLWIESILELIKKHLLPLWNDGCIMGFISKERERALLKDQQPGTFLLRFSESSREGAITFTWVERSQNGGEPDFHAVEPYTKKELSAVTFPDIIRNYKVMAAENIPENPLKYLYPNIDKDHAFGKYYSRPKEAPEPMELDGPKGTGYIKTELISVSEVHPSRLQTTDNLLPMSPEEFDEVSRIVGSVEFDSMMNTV
UniProt P28482: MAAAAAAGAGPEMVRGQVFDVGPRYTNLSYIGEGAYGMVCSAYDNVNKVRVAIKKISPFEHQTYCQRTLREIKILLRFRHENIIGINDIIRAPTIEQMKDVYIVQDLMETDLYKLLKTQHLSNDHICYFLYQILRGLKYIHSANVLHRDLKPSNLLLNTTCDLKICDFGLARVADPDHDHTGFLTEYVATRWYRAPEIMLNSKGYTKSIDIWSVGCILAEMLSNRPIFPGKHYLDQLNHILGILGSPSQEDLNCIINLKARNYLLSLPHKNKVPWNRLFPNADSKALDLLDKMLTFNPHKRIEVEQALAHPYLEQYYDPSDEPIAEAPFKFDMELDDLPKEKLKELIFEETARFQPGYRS
UniProt O43707: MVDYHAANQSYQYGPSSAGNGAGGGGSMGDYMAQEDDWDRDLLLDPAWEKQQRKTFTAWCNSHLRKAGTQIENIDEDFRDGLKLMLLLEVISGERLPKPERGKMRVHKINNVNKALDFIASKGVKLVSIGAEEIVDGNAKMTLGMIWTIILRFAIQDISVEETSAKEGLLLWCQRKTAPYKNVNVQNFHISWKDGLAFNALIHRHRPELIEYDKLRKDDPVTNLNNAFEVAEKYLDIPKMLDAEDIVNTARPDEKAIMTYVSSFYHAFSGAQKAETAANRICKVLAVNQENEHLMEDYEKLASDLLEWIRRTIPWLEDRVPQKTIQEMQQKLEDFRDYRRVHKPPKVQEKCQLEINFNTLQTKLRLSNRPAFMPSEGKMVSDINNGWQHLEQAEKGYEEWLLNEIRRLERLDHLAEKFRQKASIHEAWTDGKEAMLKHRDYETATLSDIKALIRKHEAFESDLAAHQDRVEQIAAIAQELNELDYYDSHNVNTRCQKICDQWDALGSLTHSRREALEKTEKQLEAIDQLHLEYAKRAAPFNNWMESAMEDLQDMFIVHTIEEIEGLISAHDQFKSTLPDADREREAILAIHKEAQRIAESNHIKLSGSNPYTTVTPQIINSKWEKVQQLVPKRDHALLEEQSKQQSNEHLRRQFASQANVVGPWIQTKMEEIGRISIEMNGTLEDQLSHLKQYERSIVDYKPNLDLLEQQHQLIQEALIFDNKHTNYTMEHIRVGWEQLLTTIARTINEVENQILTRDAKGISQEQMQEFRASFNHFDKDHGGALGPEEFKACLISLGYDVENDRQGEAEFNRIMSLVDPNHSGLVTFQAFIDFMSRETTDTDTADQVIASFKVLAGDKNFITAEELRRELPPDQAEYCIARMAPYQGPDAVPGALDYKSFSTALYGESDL
UniProt Q04206: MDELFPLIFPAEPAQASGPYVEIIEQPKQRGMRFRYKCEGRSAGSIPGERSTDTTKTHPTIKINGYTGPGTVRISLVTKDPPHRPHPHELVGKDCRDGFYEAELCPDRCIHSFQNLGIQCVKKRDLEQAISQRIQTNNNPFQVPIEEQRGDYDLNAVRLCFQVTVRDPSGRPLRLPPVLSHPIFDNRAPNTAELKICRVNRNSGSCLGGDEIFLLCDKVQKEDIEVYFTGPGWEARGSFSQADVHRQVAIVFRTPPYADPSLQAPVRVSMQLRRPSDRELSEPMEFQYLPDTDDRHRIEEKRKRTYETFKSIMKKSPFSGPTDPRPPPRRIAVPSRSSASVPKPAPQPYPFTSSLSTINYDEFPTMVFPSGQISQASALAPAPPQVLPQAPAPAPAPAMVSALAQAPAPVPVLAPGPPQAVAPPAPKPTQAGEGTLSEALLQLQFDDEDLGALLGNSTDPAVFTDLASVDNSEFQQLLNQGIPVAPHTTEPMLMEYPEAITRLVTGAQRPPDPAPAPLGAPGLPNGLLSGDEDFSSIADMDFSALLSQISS
UniProt P43694: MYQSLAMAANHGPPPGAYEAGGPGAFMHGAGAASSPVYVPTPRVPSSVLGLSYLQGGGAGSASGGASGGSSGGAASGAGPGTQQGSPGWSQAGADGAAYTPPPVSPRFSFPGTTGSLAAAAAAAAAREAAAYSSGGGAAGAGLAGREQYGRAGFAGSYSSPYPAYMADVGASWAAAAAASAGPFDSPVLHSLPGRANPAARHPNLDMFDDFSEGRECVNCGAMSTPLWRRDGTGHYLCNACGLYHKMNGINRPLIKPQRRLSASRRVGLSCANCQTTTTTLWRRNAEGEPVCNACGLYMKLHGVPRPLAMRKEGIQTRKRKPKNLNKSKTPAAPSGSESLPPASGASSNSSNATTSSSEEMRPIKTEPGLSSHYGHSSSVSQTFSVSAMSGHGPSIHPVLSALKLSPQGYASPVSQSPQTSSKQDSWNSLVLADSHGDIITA
UniProt P27361: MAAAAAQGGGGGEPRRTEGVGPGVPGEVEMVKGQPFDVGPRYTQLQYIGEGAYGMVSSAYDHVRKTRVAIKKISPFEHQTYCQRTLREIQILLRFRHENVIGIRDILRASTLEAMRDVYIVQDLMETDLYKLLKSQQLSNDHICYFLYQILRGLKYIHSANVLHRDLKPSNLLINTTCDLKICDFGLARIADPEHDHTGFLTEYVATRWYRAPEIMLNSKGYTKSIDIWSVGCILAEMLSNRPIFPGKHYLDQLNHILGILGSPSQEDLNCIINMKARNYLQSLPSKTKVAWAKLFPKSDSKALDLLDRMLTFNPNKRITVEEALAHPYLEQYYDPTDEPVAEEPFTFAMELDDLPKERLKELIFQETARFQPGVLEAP
UniProt Q02078: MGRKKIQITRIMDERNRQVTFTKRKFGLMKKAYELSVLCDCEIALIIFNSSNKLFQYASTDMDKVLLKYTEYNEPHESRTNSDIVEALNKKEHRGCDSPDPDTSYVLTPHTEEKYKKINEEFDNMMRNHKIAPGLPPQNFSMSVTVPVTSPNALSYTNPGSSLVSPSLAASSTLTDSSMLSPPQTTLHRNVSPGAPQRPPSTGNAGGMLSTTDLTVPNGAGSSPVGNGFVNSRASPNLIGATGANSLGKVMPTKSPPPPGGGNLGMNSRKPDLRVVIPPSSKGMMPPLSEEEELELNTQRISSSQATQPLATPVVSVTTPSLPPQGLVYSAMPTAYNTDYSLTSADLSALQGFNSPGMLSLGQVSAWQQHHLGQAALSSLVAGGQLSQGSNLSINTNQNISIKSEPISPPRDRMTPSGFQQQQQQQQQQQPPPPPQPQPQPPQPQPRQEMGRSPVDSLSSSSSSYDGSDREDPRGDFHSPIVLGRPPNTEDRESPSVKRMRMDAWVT
UniProt P40763: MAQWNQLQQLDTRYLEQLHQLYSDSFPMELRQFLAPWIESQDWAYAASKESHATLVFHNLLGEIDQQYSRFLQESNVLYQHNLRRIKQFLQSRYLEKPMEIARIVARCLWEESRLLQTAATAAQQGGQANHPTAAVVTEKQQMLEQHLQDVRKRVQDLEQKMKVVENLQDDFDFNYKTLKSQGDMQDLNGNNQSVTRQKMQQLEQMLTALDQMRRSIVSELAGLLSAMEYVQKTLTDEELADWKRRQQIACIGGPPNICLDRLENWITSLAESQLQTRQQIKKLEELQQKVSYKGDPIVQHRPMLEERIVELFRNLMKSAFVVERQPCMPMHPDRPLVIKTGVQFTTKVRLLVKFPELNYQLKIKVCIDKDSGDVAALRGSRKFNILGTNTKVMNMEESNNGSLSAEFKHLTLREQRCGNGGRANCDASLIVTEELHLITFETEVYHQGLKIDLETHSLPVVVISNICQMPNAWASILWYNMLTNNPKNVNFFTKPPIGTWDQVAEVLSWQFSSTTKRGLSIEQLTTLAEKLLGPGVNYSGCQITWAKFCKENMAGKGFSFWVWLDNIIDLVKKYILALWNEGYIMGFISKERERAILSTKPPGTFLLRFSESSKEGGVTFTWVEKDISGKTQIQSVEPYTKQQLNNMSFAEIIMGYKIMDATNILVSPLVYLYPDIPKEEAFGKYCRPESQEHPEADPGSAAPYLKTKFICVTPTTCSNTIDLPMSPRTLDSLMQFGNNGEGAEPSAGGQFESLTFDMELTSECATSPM
UniProt Q9UBI6: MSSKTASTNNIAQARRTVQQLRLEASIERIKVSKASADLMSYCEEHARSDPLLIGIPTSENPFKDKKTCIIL
UniProt P20226: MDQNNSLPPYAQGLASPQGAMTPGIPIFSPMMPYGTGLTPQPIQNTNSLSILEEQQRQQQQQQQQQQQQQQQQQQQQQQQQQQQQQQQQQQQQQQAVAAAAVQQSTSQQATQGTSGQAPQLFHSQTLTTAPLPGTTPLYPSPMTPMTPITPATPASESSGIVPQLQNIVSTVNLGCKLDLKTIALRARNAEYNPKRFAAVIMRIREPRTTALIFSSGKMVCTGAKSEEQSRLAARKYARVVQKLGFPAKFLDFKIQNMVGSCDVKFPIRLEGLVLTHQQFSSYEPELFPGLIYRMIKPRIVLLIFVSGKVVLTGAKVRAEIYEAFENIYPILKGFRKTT

These are yes or no findings as the source states them, for the method shown. Binding seen in cells or lysates may run through a third protein. Some binding calls cover weakened binding; strength is not graded here.

In one assay the target is G-protein β2 subunit (Gβ2) (human (endogenous in HEK-293)) (UniProt P62879). The experiment in a line: co-IP; nuclear fractions (100 µg) of HEK-AT1R cells treated with AngII (1 µM for 30 min); pull-down with a Gβ2 antibody and ProtG (+) or only ProtG (−); immunoblot. On the technique in general: Immunoblotting shows a protein as a band on a membrane.
Turning to STAT1 (from UniProt P42224 1-750), the binding result is recorded as “binds”.

Consider “phosphorylated extracellular signal-regulated kinase 2 (pERK2 of pERK1/2) (from UniProt P28482 1-360) (enzyme)”, for which the binding entry is “no binding”.

Turning to α-actinin-4 (from UniProt O43707 1-911), the binding result was “binds”.

As for p65 NFκB (from UniProt Q04206 1-551), the binding result is on record as “no binding”.

Turning to “GATA binding protein (GATA4) (from UniProt P43694 1-442)”, the binding result is recorded as “no binding”.

Regarding “phosphorylated extracellular signal-regulated kinase 1 (pERK1 of pERK1/2) (from UniProt P27361 1-379) (enzyme)”, the binding result is listed as “no binding”.

Take “myocyte enhancer factor 2A (MEF2A) (from UniProt Q02078 1-507)”: the binding entry is “binds”.

For the substance “signal transducer and activator of transcription 3 (STAT3) (from UniProt P40763 1-770)”, the binding result is “binds”.

Turning to “HDAC5 (from UniProt Q9UQL6 1-1122) (enzyme)”, the binding result is reported as “binds”.

The target of a further assay is myc-tagged human Gγ12 (human) (UniProt Q9UBI6). The assay is described as follows: co-IP; HEK-AT1R cells transiently transfected with myc-Gγ12, AT1R activated with AngII; association of myc-Gγ12 with endogenous proteins.
Consider “G-protein β2 subunit (Gβ2) (from UniProt P62879 1-340)”, for which the binding entry is recorded as “binds”.

In the case of “TATA-binding protein (TBP) (from UniProt P20226 1-339)”, the binding entry was “binds”.

Consider “myocyte enhancer factor 2A (MEF2A) (from UniProt Q02078 1-507)”, for which the binding entry is “binds”.

In another assay the target is amino-terminal FLAG-tagged human Gβ2 (human) (UniProt P62879). The experiment in a line: co-IP; anti-M2 FLAG beads, FLAG-Gβ2/mutants and MEF2-expressing cells; immunoblot quantified (Kodak Imager), n = 3.
On to “MEF2A in 'FLAG-Gβ2/mutants and MEF2-expressing cells' (from UniProt Q02078 1-507)”, for which the binding entry is listed as “binds”.
